# About 230 (0.21%) of roughly 110,000 compounds showed an effect of 50% or more. This is one part of the list.
# Target: DPAP1 (Plasmodium falciparum, UniProt Q8IIJ9)
# Test: primary screen, percent inhibition; read by cleavage of a fluorogenic dipeptide substrate; higher = more effect of the substance
# Parameters: species or system P. falciparum D10 trophozoite lysates; single well
# 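Note: 30 min substrate incubation versus DMSO and 10 µM JCP410 controls.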
# Chain of DPAP1 (Q8IIJ9 whole entry, looked up): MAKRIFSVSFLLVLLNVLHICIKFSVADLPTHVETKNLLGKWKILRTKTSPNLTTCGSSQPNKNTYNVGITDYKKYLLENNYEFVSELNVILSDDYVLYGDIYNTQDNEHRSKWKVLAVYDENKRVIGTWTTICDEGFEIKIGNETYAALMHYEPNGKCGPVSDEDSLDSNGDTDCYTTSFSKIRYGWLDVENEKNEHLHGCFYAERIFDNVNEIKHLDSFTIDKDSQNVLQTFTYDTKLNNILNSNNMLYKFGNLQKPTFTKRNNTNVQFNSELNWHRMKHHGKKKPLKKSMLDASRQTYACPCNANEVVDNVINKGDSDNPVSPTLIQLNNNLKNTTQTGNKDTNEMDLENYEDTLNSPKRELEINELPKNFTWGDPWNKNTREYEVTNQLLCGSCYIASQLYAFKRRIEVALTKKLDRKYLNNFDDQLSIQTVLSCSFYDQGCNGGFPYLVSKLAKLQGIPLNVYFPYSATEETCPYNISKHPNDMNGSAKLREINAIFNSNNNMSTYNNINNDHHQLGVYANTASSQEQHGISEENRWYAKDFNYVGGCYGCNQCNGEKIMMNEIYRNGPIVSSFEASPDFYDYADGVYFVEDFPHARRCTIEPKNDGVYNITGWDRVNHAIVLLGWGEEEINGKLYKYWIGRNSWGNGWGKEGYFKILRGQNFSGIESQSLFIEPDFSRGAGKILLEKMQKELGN
row,SMILES,% Inhibition @ 10 uM
1,COCC(C)NC(=O)C1CC(c2ccc(F)cc2)=NO1 (centres unmarked),-4.17%
2,Cc1cc(C)n(-c2nc3cc(Cl)c(Cl)cc3n3nnnc23)n1,3%
3,Cc1ccc(CSCc2ccc(C(=O)NCCCN3CCOCC3)o2)cc1,-1.21%
4,COc1ccc(CN2CCN(c3ccc([N+](=O)[O-])cc3)CC2)cc1Br,0.708%
5,Cc1cc(C)cc(OCC(=O)NCc2cc(C)nc3ccccc23)c1,2.57%
6,Cc1ccc(Oc2cc(-n3cncn3)ncn2)cc1,3.21%
7,Cc1cccc(NC(=O)CN2C(=O)N/C(=C/c3cccn3-c3ccccc3F)C2=O)c1,-4.05%
8,Cn1ncc(C(=O)NCC2CCN(C3CCCC3)C2)c1C1CCN(C(=O)OC(C)(C)C)CC1 (centres unmarked),8.98%
9,CCc1c(C)nn2cnnc2c1O,-0.186%
10,CN1C(=O)c2ccccc2C(C(=O)N2CCN(C(=O)c3ccco3)CC2)C1c1cn(C)c2ccccc12 (centres unmarked),0.559%
11,COc1ccc(CC(=O)Cn2c(SCc3ccc(F)cc3)nc3ccncc32)c(OC)c1,8.62%
12,O=S1(=O)c2ccccc2Oc2ccccc21,-2.63%
13,COc1ccc(S(=O)(=O)N2CCC(n3c(O)nc4ccccc43)CC2)cc1OC,1%
14,CCOCCCNC(=O)CN1C(=O)c2ccccc2Sc2ncccc21,-0.959%
15,CCOc1ccc(-c2csc(/C(C#N)=C/c3cccc(Cl)c3)n2)cc1,-4.31%
16,O=C(NCc1ccccn1)C(=O)NCC(c1cccnc1)N1CCOCC1 (centres unmarked),-7.29%
17,Cn1c(SCC(O)COc2ccccc2)nc2ccccc21 (centres unmarked),0.0265%
18,Cc1ccc(-c2nc(C#N)c(Nc3ccccc3)o2)cc1,1.21%
19,CCCCCc1cnc(-c2ccccc2O)nc1,0.219%
20,Clc1ccc(Cn2c(C3CCCO3)nc3ccccc32)cc1 (centres unmarked),-4.82%
21,COCCCNC(=O)Cn1ncc2c3ccccc3nc-2c1O,7.2%
22,Cc1ccc2c(CC(=O)N(Cc3ccc(F)cc3)C3CCS(=O)(=O)C3)coc2c1C (centres unmarked),-4.19%
23,O=C(C1=C(O)C(=O)N(c2ccccn2)C1c1ccc(F)cc1)c1ccc(Cl)cc1 (centres unmarked),2.82%
24,Cc1ccc(S(=O)(=O)NCCCN2CCOCC2)cc1,3.32%
25,C=CCC(C#N)(CC=C)c1ccc(OC)c(OC)c1,1.67%

row,SMILES,% Inhibition @ 10 uM
1,COC(C)(C)CCC[C@@H](C)C(O)CO (some centres unmarked),-5.46%
2,CCN(Cc1ccccc1)C(=O)C1CCN(c2nnc(C)c3c(C)n(-c4ccccc4)nc23)CC1,-1.95%
3,OCCN1CCN(Cc2c(F)cccc2F)CC1,-1.41%
4,Cc1cccc(Cn2c(N3CCOCC3)nc3c2c(=O)[nH]c(=O)n3C)c1,-4.6%
5,CCCC1=NN2C(=O)CC(=O)N=C2S1,5.04%
6,CCN(CC)S(=O)(=O)c1nnc(NC(=O)COc2ccccc2C)s1,1.68%
7,CCC1CCc2nc3sc(C(=O)NCc4ccc(OC)cc4)c(N)c3cc2C1 (centres unmarked),10.9%
8,CC(C)CCNc1ncnc2c1nc1n2CCCCC1,7.44%
9,Nc1cc[n+](C/C=C/c2ccccc2)cc1,-2.53%
10,COc1ccc(-n2c(C)cc(/C=C3/C(=N)N4C(=NC3=O)SN=C4S(C)(=O)=O)c2C)cc1,1.85%
11,CCCCC(C(=O)O)N1C(=O)c2ccccc2C1=O (centres unmarked),2.24%
12,COc1ccc(S(=O)(=O)Nc2ccc(C)cc2NS(=O)(=O)c2ccc(OC)cc2)cc1,0.727%
13,CC1=C(C(=O)Nc2ccc(C)cn2)C(c2cccc(Br)c2)C2=C(O)CC(C)(C)CC2=N1 (centres unmarked),1.4%
14,Cc1cccc(-c2noc(-c3ccccn3)n2)c1,-3.33%
15,CCOc1ccc(NC(=O)c2ccc(OC)cc2)cc1,-5.38%
16,COc1ccc(C2C3=C(O)CC(C)(C)CC3=NC(C)=C2C(=O)Nc2ccccc2C)c(OC)c1 (centres unmarked),0.658%
17,CC1Cc2scc[n+]2-c2ccccc2N1C(=O)Nc1ccccc1 (centres unmarked),5.49%
18,CC1C2=C(O)CC(C)(C)CC2=Nc2sc(C(N)=O)c(N)c21 (centres unmarked),7.24%
19,CC(C)(C)NC(=O)Nc1cccc(Cl)c1,4.57%
20,O=C(Nc1ccc2c(c1)OCCO2)Nc1cccc2ccccc12,0.605%
21,O=[N+]([O-])c1ccccc1NS(=O)(=O)c1ccccc1[N+](=O)[O-],-0.999%
22,Nc1ccc(-c2nc3ccc(N)cc3s2)cc1,-5.49%
23,CC(=O)N1N=C(c2ccc(O)cc2)CC1c1ccc(Cl)c(Cl)c1 (centres unmarked),-5.92%
24,COc1cc(OC)cc(C(=O)Nc2ccccc2C)c1,-12.2%
25,CCn1c(N2CCCCCC2)nc2c1c(=O)[nH]c(=O)n2C,-3%

# From article PMC6919601, “Identification of Plasmodium dipeptidyl aminopeptidase allosteric inhibitors by high throughput screening” (PLoS ONE, 2019)
